Assay results as given in patent publication US20250145680A1 (REMD BIOTHERAPEUTICS, published 2025).

Columns and labels:
[1] = molecular target: T1, Type I IFN receptor (IFNAR) (UniProt P17181 28-557; P48551 27-515, limits assumed); test: cell-based or functional assay
T1 sequence (looked up) 1: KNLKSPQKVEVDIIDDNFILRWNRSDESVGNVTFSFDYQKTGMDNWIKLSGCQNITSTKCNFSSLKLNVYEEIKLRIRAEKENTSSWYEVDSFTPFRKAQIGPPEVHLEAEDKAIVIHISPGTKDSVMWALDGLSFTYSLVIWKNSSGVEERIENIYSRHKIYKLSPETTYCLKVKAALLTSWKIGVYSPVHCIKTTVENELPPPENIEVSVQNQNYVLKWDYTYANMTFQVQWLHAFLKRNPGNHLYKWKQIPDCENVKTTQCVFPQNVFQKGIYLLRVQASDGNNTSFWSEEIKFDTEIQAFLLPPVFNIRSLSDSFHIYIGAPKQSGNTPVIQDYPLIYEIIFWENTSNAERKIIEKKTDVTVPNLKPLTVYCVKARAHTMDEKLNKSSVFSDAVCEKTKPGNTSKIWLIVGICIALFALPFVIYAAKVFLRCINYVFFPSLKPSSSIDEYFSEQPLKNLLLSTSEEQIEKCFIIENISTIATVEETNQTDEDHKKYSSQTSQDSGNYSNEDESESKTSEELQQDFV
T1 sequence (looked up) 2: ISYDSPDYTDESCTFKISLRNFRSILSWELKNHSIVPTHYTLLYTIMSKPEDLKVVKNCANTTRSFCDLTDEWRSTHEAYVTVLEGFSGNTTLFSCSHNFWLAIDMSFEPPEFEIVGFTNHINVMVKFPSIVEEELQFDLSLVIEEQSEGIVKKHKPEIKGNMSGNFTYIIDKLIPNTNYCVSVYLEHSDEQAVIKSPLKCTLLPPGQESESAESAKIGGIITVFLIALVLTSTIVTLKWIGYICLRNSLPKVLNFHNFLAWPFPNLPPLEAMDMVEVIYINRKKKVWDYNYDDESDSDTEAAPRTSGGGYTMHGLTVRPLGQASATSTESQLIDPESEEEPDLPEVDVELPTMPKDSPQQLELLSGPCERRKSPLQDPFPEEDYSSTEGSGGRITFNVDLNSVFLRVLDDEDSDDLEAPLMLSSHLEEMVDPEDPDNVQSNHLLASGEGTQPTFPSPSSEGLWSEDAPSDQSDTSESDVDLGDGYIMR

[2] = molecular target: T1, Type I IFN receptor (IFNAR); test: cell-based or functional assay; remark: listed apart in the source

EC50 ratio1 (EC50 of FP/EC50 of IFN-α2b) on PD-L1-negative cells; IFN-α reporter assay (SEAP), PD-L1 blocked with REMD290 [1]: 1580 fold
B1: anti-PD-L1 Ab-con-IFN-α fusion molecule (FP-14), con-IFN-α (R150A), G8 linker (other)
light: DIQMTQSPSSVSASVGDRVTITCKTSQDVNTAVAWYQQKPGQAPRLLIYWASTRHTGVPDRFSGSGSGTDFTLTISSLQAEDVAVYYCQQHYNTPLTFGGGTKLEIKRTVAAPSVFIFPPSDEQLKSGTASVVCLLNNFYPREAKVQWKVDNALQSGNSQESVTEQDSKDSTYSLSSTLTLSKADYEKHKVYACEVTHQGLSSPVTKSFNRGEC
heavy: QMQLVQSGAEVKKTGSSVKVSCKASGYTFTSYSINWVRQAPGKGLEWVAYFYVGNGYTDYNEKFKGRVTMTRDTSTSTVYMELSSLRSEDTAVYYCARGGLPYYFDYWGQGTLVTVSSASTKGPSVFPLAPCSRSTSESTAALGCLVKDYFPEPVTVSWNSGALTSGVHTFPAVLQSSGLYSLSSVVTVPSSSLGTKTYTCNVDHKPSNTKVDKRV[human IgG4 Fc with S228P (EU numbers) not printed]GGGGGGGGCDLPQTHSLGNRRALILLAQMRRISPFSCLKDRHDFGFPQEEFDGNQFQKAQAISVLHEMIQQTFNLFSTKDSSAAWDESLLEKFYTELYQQLNDLEACVIQEVGVEETPLMNVDSILAVKKYFQRITLYLTEKKYSPCAWEVVRAEIMASFSLSTNLQERLRRKE

EC50 ratio1 (EC50 of FP/EC50 of IFN-α2b) on PD-L1-negative cells; IFN-α reporter assay (SEAP), PD-L1 blocked with REMD290 [1]: 37.6 fold
B2: anti-PD-L1 Ab-con-IFN-α fusion molecule (FP-16), con-IFN-α (A146D), G8 linker (other)
light: B1 light
heavy: QMQLVQSGAEVKKTGSSVKVSCKASGYTFTSYSINWVRQAPGKGLEWVAYFYVGNGYTDYNEKFKGRVTMTRDTSTSTVYMELSSLRSEDTAVYYCARGGLPYYFDYWGQGTLVTVSSASTKGPSVFPLAPCSRSTSESTAALGCLVKDYFPEPVTVSWNSGALTSGVHTFPAVLQSSGLYSLSSVVTVPSSSLGTKTYTCNVDHKPSNTKVDKRV[human IgG4 Fc with S228P (EU numbers) not printed]GGGGGGGGCDLPQTHSLGNRRALILLAQMRRISPFSCLKDRHDFGFPQEEFDGNQFQKAQAISVLHEMIQQTFNLFSTKDSSAAWDESLLEKFYTELYQQLNDLEACVIQEVGVEETPLMNVDSILAVKKYFQRITLYLTEKKYSPCAWEVVRDEIMRSFSLSTNLQERLRRKE

EC50 ratio1 (EC50 of FP/EC50 of IFN-α2b) on PD-L1-negative cells; IFN-α reporter assay (SEAP), PD-L1 blocked with REMD290 [1]: 8440 fold
EC50 (pM) on PD-L1-negative cells; IFN-α reporter assay; sample stored at 4° C. for 80 days [2]: 2960 pM
EC50 (pM) on PD-L1-negative cells; IFN-α reporter assay; sample stored at -80° C. for 80 days [2]: 2780 pM
B3: anti-PD-L1 Ab-con-IFN-α (R150A) fusion molecule (FP-07) (other)
light: B1 light
heavy: QMQLVQSGAEVKKTGSSVKVSCKASGYTFTSYSINWVRQAPGKGLEWVAYFYVGNGYTDYNEKFKGRVTMTRDTSTSTVYMELSSLRSEDTAVYYCARGGLPYYFDYWGQGTLVTVSSASTKGPSVFPLAPCSRSTSESTAALGCLVKDYFPEPVTVSWNSGALTSGVHTFPAVLQSSGLYSLSSVVTVPSSSLGTKTYTCNVDHKPSNTKVDKRV[human IgG4 Fc with S228P (EU numbers) not printed]CDLPQTHSLGNRRALILLAQMRRISPFSCLKDRHDFGFPQEEFDGNQFQKAQAISVLHEMIQQTFNLFSTKDSSAAWDESLLEKFYTELYQQLNDLEACVIQEVGVEETPLMNVDSILAVKKYFQRITLYLTEKKYSPCAWEVVRAEIMASFSLSTNLQERLRRKE

EC50 ratio1 (EC50 of FP/EC50 of IFN-α2b) on PD-L1-negative cells; IFN-α reporter assay (SEAP), PD-L1 blocked with REMD290 [1]: 209 fold
EC50 (pM) on PD-L1-negative cells; IFN-α reporter assay; sample stored at 4° C. for 80 days [2]: 57.6 pM
EC50 (pM) on PD-L1-negative cells; IFN-α reporter assay; sample stored at -80° C. for 80 days [2]: 81.4 pM
B4: anti-PD-L1 Ab-con-IFN-α (A146D) fusion molecule (FP-08) (other)
light: B1 light
heavy: QMQLVQSGAEVKKTGSSVKVSCKASGYTFTSYSINWVRQAPGKGLEWVAYFYVGNGYTDYNEKFKGRVTMTRDTSTSTVYMELSSLRSEDTAVYYCARGGLPYYFDYWGQGTLVTVSSASTKGPSVFPLAPCSRSTSESTAALGCLVKDYFPEPVTVSWNSGALTSGVHTFPAVLQSSGLYSLSSVVTVPSSSLGTKTYTCNVDHKPSNTKVDKRV[human IgG4 Fc with S228P (EU numbers) not printed]CDLPQTHSLGNRRALILLAQMRRISPFSCLKDRHDFGFPQEEFDGNQFQKAQAISVLHEMIQQTFNLFSTKDSSAAWDESLLEKFYTELYQQLNDLEACVIQEVGVEETPLMNVDSILAVKKYFQRITLYLTEKKYSPCAWEVVRDEIMRSFSLSTNLQERLRRKE

EC50 ratio1 (EC50 of FP/EC50 of IFN-α2b) on PD-L1-negative cells; IFN-α reporter assay (SEAP), PD-L1 blocked with REMD290 [1]: 11.8 fold
B5: anti-PD-L1 Ab-con-IFN-α fusion molecule (FP-06) (other)
light: B1 light
heavy: QMQLVQSGAEVKKTGSSVKVSCKASGYTFTSYSINWVRQAPGKGLEWVAYFYVGNGYTDYNEKFKGRVTMTRDTSTSTVYMELSSLRSEDTAVYYCARGGLPYYFDYWGQGTLVTVSSASTKGPSVFPLAPCSRSTSESTAALGCLVKDYFPEPVTVSWNSGALTSGVHTFPAVLQSSGLYSLSSVVTVPSSSLGTKTYTCNVDHKPSNTKVDKRV[human IgG4 Fc with S228P (EU numbers) not printed]CDLPQTHSLGNRRALILLAQMRRISPFSCLKDRHDFGFPQEEFDGNQFQKAQAISVLHEMIQQTFNLFSTKDSSAAWDESLLEKFYTELYQQLNDLEACVIQEVGVEETPLMNVDSILAVKKYFQRITLYLTEKKYSPCAWEVVRAEIMRSFSLSTNLQERLRRKE

EC50 ratio1 (EC50 of FP/EC50 of IFN-α2b) on PD-L1-negative cells; IFN-α reporter assay (SEAP), PD-L1 blocked with REMD290 [1]: 15 fold
B6: anti-PD-L1 Ab-con-IFN-α fusion molecule (FP-17), con-IFN-α (A146D), (G4S)x3 linker (other)
light: B1 light
heavy: QMQLVQSGAEVKKTGSSVKVSCKASGYTFTSYSINWVRQAPGKGLEWVAYFYVGNGYTDYNEKFKGRVTMTRDTSTSTVYMELSSLRSEDTAVYYCARGGLPYYFDYWGQGTLVTVSSASTKGPSVFPLAPCSRSTSESTAALGCLVKDYFPEPVTVSWNSGALTSGVHTFPAVLQSSGLYSLSSVVTVPSSSLGTKTYTCNVDHKPSNTKVDKRV[human IgG4 Fc with S228P (EU numbers) not printed]GGGGSGGGGSGGGGSCDLPQTHSLGNRRALILLAQMRRISPFSCLKDRHDFGFPQEEFDGNQFQKAQAISVLHEMIQQTFNLFSTKDSSAAWDESLLEKFYTELYQQLNDLEACVIQEVGVEETPLMNVDSILAVKKYFQRITLYLTEKKYSPCAWEVVRDEIMRSFSLSTNLQERLRRKE

EC50 ratio1 (EC50 of FP/EC50 of IFN-α2b) on PD-L1-negative cells; IFN-α reporter assay (SEAP), PD-L1 blocked with REMD290 [1]: 1440 fold
B7: anti-PD-L1 Ab-con-IFN-α fusion molecule (FP-15), con-IFN-α (R150A), (G4S)x3 linker (other)
light: B1 light
heavy: QMQLVQSGAEVKKTGSSVKVSCKASGYTFTSYSINWVRQAPGKGLEWVAYFYVGNGYTDYNEKFKGRVTMTRDTSTSTVYMELSSLRSEDTAVYYCARGGLPYYFDYWGQGTLVTVSSASTKGPSVFPLAPCSRSTSESTAALGCLVKDYFPEPVTVSWNSGALTSGVHTFPAVLQSSGLYSLSSVVTVPSSSLGTKTYTCNVDHKPSNTKVDKRV[human IgG4 Fc with S228P (EU numbers) not printed]GGGGSGGGGSGGGGSCDLPQTHSLGNRRALILLAQMRRISPFSCLKDRHDFGFPQEEFDGNQFQKAQAISVLHEMIQQTFNLFSTKDSSAAWDESLLEKFYTELYQQLNDLEACVIQEVGVEETPLMNVDSILAVKKYFQRITLYLTEKKYSPCAWEVVRAEIMASFSLSTNLQERLRRKE

EC50 ratio1 (EC50 of FP/EC50 of IFN-α2b) on PD-L1-negative cells; IFN-α reporter assay (SEAP), PD-L1 blocked with REMD290 [1]: 6070 fold
EC50 (pM) on PD-L1-negative cells; IFN-α reporter assay; sample stored at 4° C. for 80 days [2]: 1600 pM
EC50 (pM) on PD-L1-negative cells; IFN-α reporter assay; sample stored at -80° C. for 80 days [2]: 2040 pM
B8: anti-PD-L1 Ab-con-IFN-α (A146K) fusion molecule (FP-09) (other)
light: B1 light
heavy: QMQLVQSGAEVKKTGSSVKVSCKASGYTFTSYSINWVRQAPGKGLEWVAYFYVGNGYTDYNEKFKGRVTMTRDTSTSTVYMELSSLRSEDTAVYYCARGGLPYYFDYWGQGTLVTVSSASTKGPSVFPLAPCSRSTSESTAALGCLVKDYFPEPVTVSWNSGALTSGVHTFPAVLQSSGLYSLSSVVTVPSSSLGTKTYTCNVDHKPSNTKVDKRV[human IgG4 Fc with S228P (EU numbers) not printed]CDLPQTHSLGNRRALILLAQMRRISPFSCLKDRHDFGFPQEEFDGNQFQKAQAISVLHEMIQQTFNLFSTKDSSAAWDESLLEKFYTELYQQLNDLEACVIQEVGVEETPLMNVDSILAVKKYFQRITLYLTEKKYSPCAWEVVRKEIMRSFSLSTNLQERLRRKE

EC50 ratio1 (EC50 of FP/EC50 of IFN-α2b) on PD-L1-negative cells; IFN-α reporter assay (SEAP), PD-L1 blocked with REMD290 [1]: 16100 fold
B9: anti-PD-L1 Ab-con-IFN-α fusion molecule (FP-18), con-IFN-α (A146D and R150A), G8 linker (other)
light: B1 light
heavy: QMQLVQSGAEVKKTGSSVKVSCKASGYTFTSYSINWVRQAPGKGLEWVAYFYVGNGYTDYNEKFKGRVTMTRDTSTSTVYMELSSLRSEDTAVYYCARGGLPYYFDYWGQGTLVTVSSASTKGPSVFPLAPCSRSTSESTAALGCLVKDYFPEPVTVSWNSGALTSGVHTFPAVLQSSGLYSLSSVVTVPSSSLGTKTYTCNVDHKPSNTKVDKRV[human IgG4 Fc with S228P (EU numbers) not printed]GGGGGGGGCDLPQTHSLGNRRALILLAQMRRISPFSCLKDRHDFGFPQEEFDGNQFQKAQAISVLHEMIQQTFNLFSTKDSSAAWDESLLEKFYTELYQQLNDLEACVIQEVGVEETPLMNVDSILAVKKYFQRITLYLTEKKYSPCAWEVVRDEIMASFSLSTNLQERLRRKE

One block for each binder: values may come before it.
